Source: the supplement of paper PMC3334620
Whole data set: some 33,000 sequences, median “E-score (-0.5 to 0.5)” near -0.016, cut for the highest 2% near 0.32. Some of the results follow.

Target: T1, Stp1 (UniProt B3LFK1)
T1 sequence: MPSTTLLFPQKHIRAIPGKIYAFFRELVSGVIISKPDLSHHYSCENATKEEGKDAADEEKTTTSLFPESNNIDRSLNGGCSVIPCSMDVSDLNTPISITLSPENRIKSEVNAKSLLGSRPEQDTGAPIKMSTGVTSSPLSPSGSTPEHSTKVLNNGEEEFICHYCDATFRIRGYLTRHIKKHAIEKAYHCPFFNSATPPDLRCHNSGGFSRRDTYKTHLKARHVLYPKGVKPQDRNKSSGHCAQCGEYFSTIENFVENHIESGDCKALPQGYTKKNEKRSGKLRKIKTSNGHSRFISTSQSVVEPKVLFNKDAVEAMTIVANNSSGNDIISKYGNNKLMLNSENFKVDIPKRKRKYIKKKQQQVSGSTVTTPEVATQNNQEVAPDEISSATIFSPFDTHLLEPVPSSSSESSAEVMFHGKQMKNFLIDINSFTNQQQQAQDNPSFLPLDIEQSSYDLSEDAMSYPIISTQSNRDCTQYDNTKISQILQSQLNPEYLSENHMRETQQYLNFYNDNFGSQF
Assay: PBM E-score (8-mer binding enrichment) (E-score (-0.5 to 0.5)); higher = stronger / more preferred TF binding; most listed sequences are background and not binding sites
Details: protein concentration: 200 nM; construct: GST-full length
Procedure, shortened: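 PURExpress in vitro transcription/translation supplied GST-tagged yeast transcription factors, either full-length or DNA-binding domain. Applied at about 100-200 nM to universal all-10-mer Agilent arrays double-stranded by primer extension, the bound protein was detected with fluorescent anti-GST. E-scores, modified Wilcoxon-Mann-Whitney statistics, were given by the Universal PBM Analysis Suite to ungapped eight-base words pooled with their reverse complements after masliner normalisation.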

Row | Sequence | PBM E-score
1 | CTCCCCTA | -0.205
2 | CTCAATCC | -0.0026
3 | GGCGACTA | 0.106
4 | TAGCCTCA | -0.04
5 | ACGCCAGC | -0.0205
6 | AATAAGAA | 0.207
7 | AGACTTCA | -0.264
8 | GTCCTCTA | -0.345
9 | AAAGAATA | 0.143
10 | TCCCGACA | -0.00548
11 | AGGGCGTC | 0.131
12 | CTTCGTGC | 0.159
13 | ATGGGCCC | -0.218
14 | CAACGGAC | 0.165
15 | CGAGTTAA | 0.173
16 | CGGGCCTC | -0.00487
17 | CACTGAAG | 0.0432
18 | AAGAGTCT | -0.209
19 | CAAGGTCG | -0.241
20 | CCATTAGC | -0.0162
21 | CGATTCAG | -0.0722
22 | GCTGTCTA | -0.0314
23 | AATTGGTA | 0.109
24 | AGTCGATC | -0.128
25 | TCCTAACA | -0.038

Row | Sequence | PBM E-score
26 | TACCACAA | 0.00188
27 | AGCAGGCA | -0.0398
28 | ACGACAAA | 0.157
29 | ACGTAGCG | -0.152
30 | CTTCAGCC | -0.266
31 | AAAACACC | 0.0808
32 | ACTATCAT | 0.226
33 | ATGGAGTG | -0.176
34 | AAACGGCT | 0.376
35 | AAGTGAAG | -0.135
36 | CGCCAGGC | -0.0916
37 | AGTACTCG | -0.0558
38 | ACTCCGCT | -0.139
39 | CTTTTCCA | -0.0803
40 | CTCAGGCC | -0.336
41 | CGTGCCTA | 0.184
42 | ACCGCAAC | -0.0924
43 | CGTATATC | 0.101
44 | ATCCCCCC | -0.44
45 | TCAATCAA | 0.0678
46 | AGTTCACA | -0.141
47 | AGGTTAGA | -0.172
48 | ACCCCATA | 0.0155
49 | CCTTGAAG | -0.105
50 | AGAAGGAT | -0.358

Row | Sequence | PBM E-score
51 | CACATCAA | 0.0988
52 | TACGTGCA | 0.14
53 | AGCTCTAG | -0.108
54 | GAATCAAC | 0.123
55 | CATGGGTC | -0.296
56 | GGGTCGTA | -0.115
57 | GACACGAA | -0.111
58 | GCGTTATA | 0.0294
59 | GACTCCCA | -0.278
60 | GCCATTAA | 0.139
61 | GCATGCAC | 0.0122
62 | CCGAATCA | 0.0344
63 | ACAGTCCC | -0.22
64 | TAGGGGAA | -0.171
65 | GGCTTTAA | 0.106
66 | CTGCGTCC | -0.158
67 | CAATCGGG | -0.13
68 | ATACTAAA | 0.187
69 | AGCCAAAC | 0.00731
70 | CGAATCTC | -0.207
71 | CGCGTCAA | 0.077
72 | ATCGTGAG | -0.0633
73 | AGCAAATG | -0.0782
74 | TAGAGACA | -0.0793
75 | GGCATTAC | 0.364

Row | Sequence | PBM E-score
76 | ATCCTGTA | -0.0239
77 | GAGATCTC | -0.168
78 | CATGCAAG | -0.0447
79 | CCGAGCTA | -0.139
80 | CACGAGGA | 0.102
81 | AGATGAGC | 0.0872
82 | TATGTAGA | -0.0955
83 | CTACAGAG | -0.0642
84 | GGAATATA | 0.055
85 | GCACGCAA | -0.0758
86 | CGCCTAGC | -0.0148
87 | CGCCTACA | -0.0042
88 | AGTAACAA | 0.0362
89 | AAAAGTGA | 0.0395
90 | GGAACGGA | 0.136
91 | GAGTCATA | -0.0359
92 | ATATTTAC | 0.162
93 | ATGGTGGC | -0.321
94 | GTGATTCA | -0.0153
95 | ACGCTGGG | -0.265
96 | GGTAGTTA | -0.048
97 | CGGCGGGC | 0.192
98 | ATGGACGG | 0.17
99 | ACATATAC | -0.0472
100 | AGGCAAGG | -0.0739

Row | Sequence | PBM E-score
101 | CGGCAGGC | 0.136
102 | ACTGGGAT | -0.0789
103 | CGATGGAG | -0.0281
104 | GGAGTCGA | -0.171
105 | CGTACGAC | 0.0388
106 | CAGATCAC | -0.139
107 | CGTAATTA | 0.0434
108 | AAACTATA | 0.0206
109 | AAACCTTA | 0.0927
110 | ACTACGTG | -0.192
111 | CATCAAAG | 0.0965
112 | AGCTAAAG | -0.0869
113 | GGCTGCGA | 0.0765
114 | CACCGTGG | -0.127
115 | CAGTCCGC | 0.00123
116 | CAAATACC | -0.013
117 | CCGCTGCC | 0.0976
118 | ATGCGAGA | -0.107
119 | ACGACGCC | 0.202
120 | AACCCCCG | -0.211
121 | AACCCCAG | -0.336
122 | AACTGCGA | -0.173
123 | ATTTTTCC | 0.0398
124 | CTGGAAGA | -0.0768
125 | AGAAAGAA | 0.00711

Row | Sequence | PBM E-score
126 | AGGTGCGA | -0.253
127 | GCTGCTGA | 0.189
128 | CAAGCTGG | -0.152
129 | ATTGCAAC | 0.0596
130 | CCAACGCC | 0.128
131 | AAACCGGG | -0.195
132 | TAGATAGA | -0.0312
133 | TCATTCGA | -0.0622
134 | ATTTAGAC | 0.0406
135 | GCGCGTAA | 0.188
136 | TACTGATA | 0.184
137 | AGTCACAC | -0.0939
138 | CTTTTTGC | 0.0819
139 | AGATGTAG | -0.207
140 | AGATCGGC | 0.104
141 | AGGGATAG | -0.0778
142 | CTAGTTCA | -0.0733
143 | GCTCTCCA | -0.139
144 | CTGACCGA | -0.182
145 | AACTTTCA | 0.114
146 | GCAGCGTA | -0.105
147 | AAAGGCCT | -0.00851
148 | AAAGAACC | 0.071
149 | AATTATCA | 0.224
150 | AGGACACG | -0.163

Row | Sequence | PBM E-score
151 | AAGAAGCG | -0.0887
152 | CGATTCAC | 0.00707
153 | ATACGCAA | 0.109
154 | ACTGGGGA | -0.305
155 | AACTGGAC | -0.0374
156 | AGTCTTGA | -0.154
157 | ACGCCAAG | -0.223
158 | CCGGGCTC | -0.23
159 | AGGGTCGC | 0.0437
160 | GAACGAGC | 0.173
161 | AATAAGCA | 0.121
162 | AACCTCCA | -0.308
163 | GACTGCGA | -0.104
164 | CCCACCAC | -0.138
165 | GATGGTGA | -0.131
166 | GCGGGAAC | -0.111
167 | ATGCCTAA | 0.109
168 | ACCGCCTG | -0.179
169 | ATCTACCA | -0.00201
170 | GAGGACTA | -0.174
171 | GAGTGACA | -0.00365
172 | CTAACGTC | 0.0864
